# Results published in the BET-seq Pho4 binding data (Le et al. 2018).
# The other results are listed elsewhere or left out. Values were computed here from the reads of four pooled replicates and scatter widely.
# Biological target: T1, Pho4 (S. cerevisiae) (UniProt P07270)
# T1 sequence: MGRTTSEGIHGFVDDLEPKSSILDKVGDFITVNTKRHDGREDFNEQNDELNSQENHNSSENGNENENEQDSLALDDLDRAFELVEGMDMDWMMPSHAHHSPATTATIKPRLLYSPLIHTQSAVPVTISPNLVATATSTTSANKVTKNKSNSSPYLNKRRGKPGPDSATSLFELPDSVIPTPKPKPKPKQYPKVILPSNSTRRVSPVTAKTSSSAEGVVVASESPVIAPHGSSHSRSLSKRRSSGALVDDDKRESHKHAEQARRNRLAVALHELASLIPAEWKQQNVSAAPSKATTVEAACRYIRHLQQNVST
# Assay: relative binding free energy (BET-seq); higher = weaker binding
# Conditions: reference: library average
row,Sequence,relative binding free energy [kcal/mol]
1,TGAGGCACGTGTTGGG,-0.05
2,TGTGCCACGTGGAGTA,-0.18
3,GTACTCACGTGGGAGT,0
4,CTGTACACGTGTGTAG,-0.05
5,TGTGCCACGTGATTTT,0.16
6,TCGGTCACGTGAATAG,0.37
7,TGGAGCACGTGTACGG,-0.17
8,AGATGCACGTGAGCGT,0.1
9,GCTTTCACGTGGGCAT,0.24
10,GGATGCACGTGGGGTC,-0.1
11,ATTTGCACGTGGGATA,-0.17
12,ACGGGCACGTGAGATG,0.14
13,ATTAGCACGTGGGGCA,-0.21
14,CGGATCACGTGTGCGG,0.01
15,GTTTGCACGTGCGGAG,0.15
16,ATAGTCACGTGGGGGG,-0.05
17,TGGCTCACGTGGCCGG,0.1
18,TTATACACGTGTTCGT,-0.1
19,GTGGACACGTGTCTGT,0.12
20,ATTATCACGTGAGCGT,0.17
21,GCTTTCACGTGGGTAG,0.07
22,TATAGCACGTGTCGGT,-0.19
23,GGCATCACGTGTATTG,0.17
24,AGTAGCACGTGTAAGA,0.14
25,TTATGCACGTGTATAG,0.04

row,Sequence,relative binding free energy [kcal/mol]
1,GGGTCCACGTGGTAGT,-0.01
2,ATAGTCACGTGTACAT,0.18
3,GGTTACACGTGGTACA,0.12
4,GGTTACACGTGAGTGG,0.35
5,TGACTCACGTGTAGTG,0
6,TGCTGCACGTGAAGGG,0.26
7,GATTGCACGTGAGGAA,0.21
8,TTCTGCACGTGTTTTG,-0.01
9,CTATGCACGTGGCGTG,-0.18
10,GTGGCCACGTGTTGTG,0.07
11,AAAGGCACGTGTGGAA,0.04
12,TGCGTCACGTGAGAGG,0.24
13,AGAGGCACGTGGTATA,-0.09
14,TGTTACACGTGGGAGG,0.03
15,AATGTCACGTGGTTAA,-0.05
16,CTTTACACGTGTCGGT,0.06
17,ATGCGCACGTGGGGAT,-0.28
18,GTCTTCACGTGTTAGG,0.31
19,TGCAGCACGTGTGGGG,-0.19
20,ATGGCCACGTGGTCGT,-0.14
21,GCGATCACGTGATGGG,0.2
22,TGTATCACGTGGCGTT,0.08
23,AGGTTCACGTGTATAG,0.21
24,TTGTCCACGTGTGGAG,-0.02
25,GCGGCCACGTGTGGAG,0.06

row,Sequence,relative binding free energy [kcal/mol]
1,CGTGGCACGTGGGAAT,-0.18
2,AACGGCACGTGGGTTT,-0.25
3,GTTCTCACGTGCAGGG,0.39
4,TGGTACACGTGACAGA,0.32
5,CGCGACACGTGTGGGT,-0.05
6,TGGAACACGTGTAGTA,0.15
7,ATTGACACGTGGAATT,0.15
8,CGTAACACGTGATGTA,0.12
9,TGGTGCACGTGTAGGT,0.06
10,AGTTCCACGTGGTTTT,0.03
11,GGCGACACGTGTGTTA,0.14
12,TCTCGCACGTGGGGGT,-0.08
13,AATTTCACGTGATTTG,0.42
14,TTATACACGTGCCGGT,0.05
15,GGTGACACGTGTTAGA,-0.06
16,ATATGCACGTGAGAGT,0.18
17,ATTGGCACGTGTAATC,0.01
18,AGAGGCACGTGAAGGT,0.05
19,TGTTACACGTGCTATT,0
20,ATGGGCACGTGTAGCT,-0.15
21,GGATACACGTGGCTGT,0.05
22,GGAATCACGTGTAAAG,0.39
23,AACGGCACGTGACGTG,0.14
24,AGGTGCACGTGCATAG,-0.16
25,ATGTTCACGTGTAGCT,0.24

row,Sequence,relative binding free energy [kcal/mol]
1,TGAGTCACGTGTGCGG,0.07
2,TCTTGCACGTGTACGG,0.03
3,GGCAGCACGTGAATGT,0.29
4,TAGTTCACGTGATTCT,0.26
5,TGTGTCACGTGAGCTG,0.28
6,CGTATCACGTGCTTGT,0.12
7,AGCTCCACGTGGGGTT,-0.09
8,TGGATCACGTGTTTGT,0.12
9,GTTGGCACGTGCGGCA,-0.05
10,TAAGCCACGTGTCGGG,0.02
11,TTGCTCACGTGATCGT,0.16
12,ACTGACACGTGAGGGT,0.2
13,TTTTTCACGTGCAATA,0.17
14,TGATACACGTGTTTTT,0.06
15,TTGTGCACGTGATTTA,0.2
16,CGTTGCACGTGTCGTT,-0.01
17,TTTGACACGTGCTTGG,-0.11
18,GGGTGCACGTGTTAGC,-0.06
19,GAGGACACGTGAGGTA,0.3
20,GATGTCACGTGGTGAT,0.17
21,TTTGGCACGTGAAGTC,0.29
22,TTTGCCACGTGCTGTA,-0.11
23,TCGGCCACGTGATGTG,0.12
24,TGGAACACGTGAAGGG,0.24
25,AGGGTCACGTGTGCAG,0.06

row,Sequence,relative binding free energy [kcal/mol]
1,TGGGTCACGTGGTCCG,-0.05
2,GGTCGCACGTGAGTGG,0.08
3,GTAAGCACGTGCGTGG,-0.09
4,CTTTACACGTGTGATG,0.15
5,TTTGCCACGTGCGGGT,-0.23
6,CGTCTCACGTGTGGGC,0.28
7,AGGGCCACGTGCCGGG,-0.28
8,ATCTTCACGTGAATGT,0.33
9,TCAGTCACGTGTAGGT,0.13
10,AATGGCACGTGGATGG,-0.16
11,TGTAACACGTGGTTCG,-0.06
12,TTGTACACGTGCTATG,-0.16
13,TGGCTCACGTGTTTGA,0.25
14,GGAAGCACGTGGTAAG,-0.15
15,AATGGCACGTGGGCAG,-0.33
16,AATTGCACGTGTCTGT,0.06
17,TGGATCACGTGATTTG,0.33
18,TGGGCCACGTGTAGCT,-0.01
19,GTAACCACGTGTTGGT,-0.11
20,AGGAACACGTGGATTA,0.13
21,CGGCGCACGTGTGGAG,-0.1
22,TTATACACGTGAGTAA,0.19
23,ATTTGCACGTGGGTGG,-0.11
24,CTGGTCACGTGAATAT,0.31
25,GGGCGCACGTGATGGA,0.1

row,Sequence,relative binding free energy [kcal/mol]
1,TCGGTCACGTGTTTGC,0.18
2,GTCTGCACGTGGGTTG,-0.15
3,GTAGTCACGTGGCATT,0
4,TGTATCACGTGTTTTG,0.12
5,GATGGCACGTGTCGGG,-0.07
6,AGCTTCACGTGGTGAG,0.23
7,TGGTCCACGTGGGGGG,-0.08
8,CGCGGCACGTGGTTTT,-0.05
9,CTGGACACGTGGTGTG,-0.05
10,ATGTTCACGTGGAAGG,0.39
11,TGGGGCACGTGATCTA,-0.08
12,TTAGGCACGTGGCGGC,-0.2
13,CTTGCCACGTGTTTGG,-0.08
14,CGGTACACGTGTGATG,0.24
15,TACTGCACGTGTAGCG,0.12
16,TCGGTCACGTGGGCGC,0.08
17,TAACGCACGTGCGATG,0.19
18,GTGGACACGTGAAGGT,0.31
19,TGGTGCACGTGGTACG,-0.24
20,TTTTGCACGTGGTGCG,0.06
21,CTGTGCACGTGCGGGA,-0.22
